Data: PubChem BioAssay AID488895 (Broad Institute, 2010)
In all, about 340,000 compounds went through this assay and about 120 (0.035%) were called active. The inconclusive results got no clear call from the source; some entries with a clear call stand among them for comparison.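 The calls were made as follows: active = mean replicate inhibition at least 50% and at least half of replicates individually reaching 50%; inconclusive = only one of the two criteria met; inactive = neither criterion met.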

Assay: E. coli Tat export inhibitors, primary screen, MC4100, TorA-mCherry reporter, fluorescence, single point (AID 488895);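 also: exported cargo escapes ClpAP degradation while cytoplasmic cargo is degraded and loses fluorescence; 0% = median of neutral control wells and 100% = median of NaSCN control wells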
Settings: at 10 µM, hits give high values

| SMILES | inhibition |
| --- | --- |
| Cc1cccc(NC(=O)c2ccc([N+](=O)[O-])o2)n1 | inactive: -24.1% |
| Cc1c(NC(=O)CN2CCN(c3ccc(O)cc3)CC2)c(=O)n(-c2ccccc2)n1C | inconclusive: 20.9% |
| O=[N+]([O-])c1ccc(Sc2cccc[n+]2[O-])c2nonc12 | active: 139% |
| CCOC(=O)c1cc(/C(C)=N/OC(=O)c2ccc(C(C)(C)C)cc2)on1 | inconclusive: 24% |
| C=C1c2cccc(O)c2C(O)=C2C(=O)[C@]3(O)C(O)=C(C(N)=O)C(=O)[C@@H](N(C)C)[C@@H]3[C@@H](O)[C@H]12 | active: 140% |
| Cc1cccc(N(CC(=O)NC2CCCC2)C(=O)CCCC(=O)Nc2ccccn2)c1 | inconclusive: 32.1% |
| C/C(=C\C(=O)OCCCCCCCCC(=O)O)C[C@@H]1OC[C@H](C[C@@H]2O[C@H]2[C@@H](C)[C@H](C)O)[C@@H](O)[C@H]1O | active: 128% |
| C/C(=N\NC(=O)c1cccc2ccccc12)c1ccccn1 | inactive: 7.58% |
| COc1ccc2nc(N3CCCCC3)c(/C=C3\SC(=S)NC3=O)cc2c1 | inactive: -4.96% |
| CS(=O)(=O)N1CCc2cc(C(=O)OCC(=O)c3ccccc3)ccc21 | inactive: -4.37% |
| O=S(=O)(c1ccccc1)c1ccccc1/C=N\O | inconclusive: 28.6% |
| CC1CC(=O)N(c2ccc(Br)cc2)C(=O)C1 | inconclusive: 41.8% |
| COc1ccc(/C=N/NC(=O)c2nc(-c3ccccc3)n(-c3ccccc3)n2)c(O)c1 | inactive: -6.13% |
| O=C(CSc1nc2ccccc2c(=O)n1CCCN1CCOCC1)Nc1ccc2c(c1)OCO2 | inconclusive: 31.1% |
| Cc1ncc(CN2CCN(CCC(C)C)C(CCO)C2)s1 (stereo not given) | inconclusive: 24.5% |
| COc1ccc(/C=C/C(=O)O)cc1COc1cccc(C)c1 | inactive: -4.46% |
| O=[N+]([O-])c1ccccc1S(=O)(=O)N(CC1CO1)c1ccccc1 (stereo not given) | inconclusive: 29.2% |
| COc1ccc(/C=C(/NC(=O)c2cccc([N+](=O)[O-])c2)C(=O)O)cc1 | inconclusive: 23.8% |
| COc1ccc(CNC(=O)Oc2ccccc2)cc1Cl | inactive: 2.79% |
| COc1ccc(OC)c(-n2c(SCC(=O)N3CCc4ccccc43)nc3c(c2=O)SCC3)c1 | inconclusive: 24.4% |
| COc1cccc(/C=C/c2ccc3cccc(O)c3n2)c1 | inactive: -14.7% |
| CCCCN(CC)CCNC(=S)Nc1ccc2nc(N3CCN(C)CC3)cc(C)c2c1 | inconclusive: 28.5% |

| SMILES | inhibition |
| --- | --- |
| COc1ccc(/C=N/NC(=O)COc2cc(C)cc(C)c2)cc1COC(C)=O | inconclusive: 40% |
| C[C@@H](CN1CCC[C@H]1CN1C(N)=NC[C@@H]1Cc1ccccc1)N1C[C@@H](Cc2ccccc2)N(CCc2ccc(Cl)c(Cl)c2)C1=N | active: 65.8% |
| O=C(Cn1cnc([N+](=O)[O-])c1)NC1CCCC1 | inactive: -3.04% |
| CCOCCCNC(=O)c1ccc(Cn2c(=S)[nH]c3c([nH]c4ccc(OC)cc43)c2=O)cc1 | inconclusive: 38.8% |
| Cc1ccc(C)c(NC(=O)COC(=O)Cc2ccsc2)c1 | inconclusive: 33.5% |
| CC(=O)C1C(c2ccc(Cl)cc2)NC(=O)NC1(O)C(F)(F)F (stereo not given) | inconclusive: 32.4% |
| CCCCCCCCCCCCCCCC[n+]1cccc(C(=O)N(CC)CC)c1 | inconclusive: 44.6% |
| CC(=O)Nc1cccc(Oc2nc(C(F)(F)F)nc3ccccc23)c1 | inconclusive: 19.4% |
| Cc1ccc(=O)n(-c2ccccc2)c1 | inconclusive: 44% |
| Nc1nc2n(n1)C(c1cccc(Br)c1)CC(c1ccccc1)N2 (stereo not given) | inconclusive: 23.4% |
| CC(=O)c1c(C)n([O-])c2ccc(C)cc2[n+]1=O | inactive: 13.2% |
| O=C(Oc1ccc(Cl)c2cccnc12)c1cccc([N+](=O)[O-])c1 | inactive: 5.25% |
| COc1ccc(N(CC(=O)NCc2ccc(Cl)cc2)S(=O)(=O)c2ccccc2[N+](=O)[O-])c(OC)c1 | inconclusive: 42.9% |
| Cc1nc(Nc2ccc(Cl)cc2Cl)sc1C(=O)Nc1ccccc1 | inconclusive: 34.8% |
| COc1ccc(N2CCN(C(=O)c3ccc(C)cc3)CC2)c([N+](=O)[O-])c1 | inactive: 5.05% |
| CC(/C=N/NC(=O)c1n[nH]c2c1CCC2)=C\c1ccccc1 | inconclusive: 27.8% |
| O=[N+]([O-])c1ccc(N2CCN(Cc3ccccc3)CC2)s1 | inactive: 7.45% |
| COc1ccc(C2C(C#N)=C(N)Oc3c2sc2nc(C)cc(C)c32)cc1 (stereo not given) | inconclusive: 20.9% |
| O=C(Cn1cc([N+](=O)[O-])cn1)N1CCN(c2ccccc2)CC1 | inconclusive: 29% |
| O=C1CN2C(=Nc3ccc(Br)cc3C2c2ccccc2)CCN1 (stereo not given) | inconclusive: 44.2% |
| O=C(Nc1ccc2c(c1)OCCO2)c1ccc(Cl)c(S(=O)(=O)N2CCCCC2)c1 | inconclusive: 42.5% |
| CN1CCCC(OC(=O)CCCCC(=O)OC2CCCN(C)C2)C1 (stereo not given) | inconclusive: 33.5% |

| SMILES | inhibition |
| --- | --- |
| Oc1cccc(/C=C/c2ccc3cccc(O)c3n2)c1 | inactive: -3.05% |
| COCCn1c(-c2cccc([N+](=O)[O-])c2)nc2c1c(=O)[nH]c(=O)n2Cc1ccccc1 | inconclusive: 29.8% |
| COc1cc(-c2noc(-c3ccccc3C(=O)NCc3ccco3)n2)cc(OC)c1OC | inconclusive: 27.1% |
| COc1cccc2c1C(=O)c1c(O)c3c(c(O)c1C2=O)C[C@@](O)(C(C)=O)C[C@@H]3O[C@H]1C[C@H](N)[C@H](O)[C@H](C)O1 | inactive: -21.7% |
| CCOC(=O)c1nc(NCc2ccccc2F)c2ccccc2n1 | inconclusive: 42.4% |
| COc1cc(C(=O)NCCOC(=O)c2cccc(N(C)C)c2)cc(OC)c1OC | inconclusive: 30.7% |
| Cn1c(SCC(=O)N2CCCCC2)nc2c(c1=O)SCC2 | inactive: 1.18% |
| C=CCC1(O)C(=O)N2C(=C1C(=O)OCC)c1ccc3ccccc3c1CC2(C)C (stereo not given) | inactive: 10.5% |
| COc1cccc(-c2nn3c(-c4ccccn4)nnc3s2)c1 | inconclusive: 35.4% |
| CCn1cc(C(=O)OCC(=O)N(C)Cc2ccccc2)c(=O)c2ccc(C)nc21 | inactive: -1.42% |
| COc1ccc(C)cc1S(=O)(=O)N(CC(=O)NC1CCCC1)c1ccc(F)cc1 | inconclusive: 30.7% |
| O=S(=O)(N[C@H]1C[C@@H](NS(=O)(=O)OCC(Cl)(Cl)Cl)C2CCCCC21)OCC(Cl)(Cl)Cl (stereo not given in full) | inconclusive: 25.6% |
| COc1ccc(/C=N/Nc2ccccn2)cc1O | inconclusive: 33% |
| O=C(Nc1ccc(S(=O)(=O)Nc2ncccn2)cc1)c1cncc(Br)c1 | inconclusive: 23.2% |
| COc1cc(/C=C2\C(=N)N3N=C(S(C)(=O)=O)SC3=NC2=O)ccc1OS(=O)(=O)c1ccc(C)cc1 | inconclusive: 29.9% |
| Cn1c(C(=O)OCC(=O)NCC2CCCO2)cc2sccc21 (stereo not given) | inconclusive: 36.6% |
| CC(C)N1CCc2c(sc(NC(=O)c3ccc(S(=O)(=O)N4CCc5ccccc54)cc3)c2C(N)=O)C1 | active: 61.6% |
| CCOC(=O)C1CCN(CCC(=O)Nc2ccc(F)cc2)CC1 | inactive: -0.0418% |
| Cc1ccc(SCc2noc(C(=O)NC(C)C)c2C(=O)O)cc1C | inconclusive: 30.9% |
| CC(CCc1ccco1)NC(=O)Cn1ncc2c(=O)oc3ccccc3c21 (stereo not given) | inactive: 0.278% |
| CCc1nc2cc3sc(CC)nc3cc2s1 | inconclusive: 29.4% |
| CCn1cc(C(=O)O)c(=O)c2cc(F)c(N3CCN(C(=S)Nc4ccc(OC)cc4)CC3)cc21 | active: 72.1% |

| SMILES | inhibition |
| --- | --- |
| COc1ccc(/C=C/C(=O)Nc2ccccc2C(=O)O)cc1OC | inconclusive: 32.7% |
| C/C(=N\NC(=O)c1cccc(O)c1)c1cccc(NC(=O)c2ccc(F)cc2)c1 | inconclusive: 38% |
| Cc1nnc(NC(=O)CSc2ccc(-c3ccco3)nn2)s1 | inactive: 5.72% |
| Cc1ccccc1-c1nc(CN2CCC(C(=O)O)CC2)c(C)o1 | inconclusive: 23.8% |
| COc1cc(SC)ccc1C(=O)OCC(=O)NC(=O)NC(C)C | inconclusive: 23.4% |
| COc1ccc(N2CCN(c3ccc(N4C(=O)COCC4=O)cc3[N+](=O)[O-])CC2)cc1 | inactive: 16.1% |
| COc1ccccc1C(=O)Nc1ccnn1C1CCN(Cc2cnn(C)c2)CC1 | inconclusive: 23.8% |
| COc1cc(/C=C(\C#N)c2nn(CCO)c(N)c2C#N)cc(OC)c1OC | inconclusive: 30% |
| O=C1/C(=C\c2ccc(O)c(O)c2)SC(=S)N1Cc1ccccc1 | inconclusive: 31.3% |
| Cc1ccc(C)n1-c1ccc(-c2ccnc(N)n2)cc1 | inconclusive: 30.2% |
| Cc1ccc(/C=N/NS(=O)(=O)c2ccc([N+](=O)[O-])cc2)o1 | inactive: 3.3% |
| C[C@H]1NC(=O)[C@@]2(C)[C@@H](c3ccccc3)[C@H]3COc4ccccc4[C@H]3N2C1=O | inconclusive: 44.1% |
| O=C(OCC(=O)N1CCCC1=O)c1cccc(S(=O)(=O)N2CCOCC2)c1 | inconclusive: 20.4% |
| CCn1cc(C(=O)NCCCO)c(=O)c2cc(F)c(N3CCN(C)CC3)cc21 | active: 93.7% |
| O=[N+]([O-])c1ccc(N/N=C/c2cccc(O)c2O)c(S(=O)(=O)N2CCOCC2)c1 | inactive: -6.66% |
| c1ccc(CSc2nnc(-c3c[nH]c4ccccc34)o2)cc1 | inactive: 1.24% |
| O=C(c1ccccc1)N1CCN(c2ccc([N+](=O)[O-])c(NCC3CCCO3)c2)CC1 (stereo not given) | inconclusive: 24.7% |
| Nc1nc(CN2CCCCC2)cs1 | inconclusive: 34.5% |
| CC1(C)CC(=O)c2cc3c(nc2C1)CC(C)(C)CC3=O | inconclusive: 39.4% |
